The values below come from the supplement of paper PMC4967469.

The IC50 comes from the fitted curve, where viability falls to half of the control; a limit (>, <) means that the fit lies beyond the doses tested. AUC is the area under the same curve over the 256-fold range up to the top dose, as a fraction: 1 means no effect, lower means more sensitive. For some assays here: Any top dose called inferred was derived from the fitted curves, not read from the paper. Where only a bound is given, the exact number is not on record here.

What all share (test): Viability of human cancer cell lines after 72 h of drug (GDSC screen)
Compound in one assay: C=C(c1ccc(C(=O)O)cc1)c1cc2c(cc1C)C(C)(C)CCC2(C)C [Bexarotene]
The conditions noted are these: top dose 8 µM. The procedure:
(§1)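 Human cancer cell lines in 384-well plates, medium with 10% serum, drug for 72 h over a 256-fold dose range (nine 2-fold or five 4-fold steps up to the top dose). Adherent lines were fixed and stained with the nucleic acid dye Syto60, suspension lines read with resazurin; signal relative to control wells, capped at 0 and 100%. One two-parameter sigmoid per drug and line, fitted in a mixed model over all curves with the slope shared within a line.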

Compound in the next assay: NC(=O)Nc1cc(-c2cccc(F)c2)sc1C(=O)N[C@H]1CCCNC1 [AZD7762]
The settings on record: top dose 2 µM. The procedure: as §1

Compound in the next assay: COc1cc([C@@H]2c3cc4c(cc3[C@@H](O[C@@H]3O[C@@H]5CO[C@@H](C)O[C@H]5[C@H](O)[C@H]3O)[C@H]3COC(=O)[C@H]23)OCO4)cc(OC)c1O [Etoposide]
The conditions noted are these: top dose 16 µM. The procedure: as §1

Compound in the next assay: O=C(O)c1ccc(-c2c[nH]c3ncc(-c4ccccc4)cc23)cc1C1CCCC1 [GSK-650394]
The settings on record: top dose 16 µM; top dose inferred. How it is done:
as §1

Compound in another assay: COc1cc(C(=O)NC2CCN(C)CC2)ccc1Nc1ncc2c(n1)N(C1CCCC1)C(C)CC(=O)N2C [NPK76-II-72-1]
The settings on record: top dose 10.24 µM; top dose inferred. How it is done:
as §1

Compound in the next assay: COc1ccc(C(=O)CC2(O)C(=O)Nc3c(Cl)ccc(Cl)c32)cc1 [YK 4-279]
The conditions noted are these: top dose 10 µM. How it is done: as §1

Compound in another assay: Oc1nc(-c2ccc(C(F)(F)F)cc2)nc2c1CSCC2 [XAV 939]
The conditions noted are these: top dose 5 µM; top dose inferred. How it is done:
as §1

Compound in the next assay: Cc1ccc2nc(NCCN)c3ncc(C)n3c2c1 [BMS-345541]
The settings on record: top dose 16 µM. The procedure:
as §1

On to A4-Fuk (B-cell lymphoma, suspension), for which the AUC in the assay with Bexarotene was found to be 0.868; with AZD7762 it was 0.47; with Etoposide, 0.496; in the assay with GSK-650394, 0.841; in the assay with NPK76-II-72-1 it was 0.984; in the assay with YK 4-279, 0.673. The AUC in the assay with XAV 939 was found to be 0.976; with BMS-345541 it was 0.871. Further, the IC50 (usually the concentration needed to halve the response being measured) was 7.8 µM in the assay with Bexarotene; 103 nM with AZD7762; 976 nM with Etoposide; 11.8 µM in the assay with GSK-650394; over 10.2 µM in the assay with NPK76-II-72-1; 1.94 µM in the assay with YK 4-279. The figures for the IC50 in the assay with XAV 939 and in the assay with BMS-345541 were over 5 µM and over 16 µM, respectively.
Regarding A253 (head and neck, adherent), the AUC turned out to be 0.92 with Bexarotene; 0.728 with AZD7762; 0.131 with Etoposide; 0.92 in the assay with GSK-650394; 0.988 with NPK76-II-72-1; 0.796 with YK 4-279. The AUC with XAV 939 stood at 0.987; with BMS-345541 it was 0.851. The IC50 in the assay with Bexarotene is over 8 µM; in the assay with AZD7762 it was 547 nM; with Etoposide, 71.2 nM; with GSK-650394 it was over 16 µM; in the assay with NPK76-II-72-1 it was over 10.2 µM; with YK 4-279, 4.55 µM. For the same cell line, the concentration for half-maximal inhibition (IC50) with XAV 939 is over 5 µM; in the assay with BMS-345541 it was 11.8 µM.
As for A498 (kidney, adherent), the AUC with Bexarotene stood at 0.944; with AZD7762, 0.834; with Etoposide it was 0.838; in the assay with GSK-650394 it was 0.974; with NPK76-II-72-1, 0.978; with YK 4-279, 0.771. The figures for the AUC with XAV 939 and with BMS-345541 were 0.927 and 0.928, respectively. Further, the IC50 with Bexarotene is over 8 µM; in the assay with AZD7762 it was over 2000 nM; with Etoposide, over 16000 nM; with GSK-650394, over 16 µM; with NPK76-II-72-1 it was over 10.2 µM; with YK 4-279 it was 5.91 µM. Further, the values for the IC50 in the assay with XAV 939 and with BMS-345541 were over 5 µM and over 16 µM, respectively.
In the case of A704 (kidney, adherent), the AUC with Bexarotene was found to be 0.852; with AZD7762 it was 0.725; with Etoposide, 0.984; with GSK-650394, 0.885; with NPK76-II-72-1, 0.944; with YK 4-279 it was 0.821. The AUC with XAV 939 came to 0.946; with BMS-345541, 0.975. Further, the IC50 was 5.88 µM in the assay with Bexarotene; 530 nM with AZD7762; over 16000 nM in the assay with Etoposide; over 16 µM with GSK-650394; over 10.2 µM with NPK76-II-72-1; 5.54 µM in the assay with YK 4-279. Also, the IC50 with XAV 939 was over 5 µM; with BMS-345541, over 16 µM.
In the case of ABC-1 (lung adenocarcinoma, adherent), the AUC was found to be 0.959 with Bexarotene; 0.602 with AZD7762; 0.378 with Etoposide; 0.708 with GSK-650394; 0.883 with NPK76-II-72-1; 0.699 with YK 4-279. In addition, the AUC in the assay with XAV 939 is 0.807; with BMS-345541, 0.889. The IC50 with Bexarotene was over 8 µM; with AZD7762 it was 253 nM; in the assay with Etoposide it was 429 nM; with GSK-650394 it was 4.39 µM; with NPK76-II-72-1 it was over 10.2 µM; with YK 4-279, 2.57 µM. Further, the IC50 is 3.21 µM in the assay with XAV 939 and over 16 µM in the assay with BMS-345541.
For the cell line “ALL-PO (lymphoblastic leukaemia, suspension)”, the AUC came out at 0.747 with Bexarotene; 0.183 in the assay with AZD7762; 0.461 in the assay with Etoposide; 0.46 with GSK-650394; 0.458 with NPK76-II-72-1; 0.95 in the assay with YK 4-279. Further, the figures for the AUC with XAV 939 and in the assay with BMS-345541 were 0.969 and 0.708, respectively. Also, the IC50 with Bexarotene was 2.69 µM; with AZD7762, 13 nM; with Etoposide it was 778 nM; in the assay with GSK-650394, 0.771 µM; with NPK76-II-72-1, 0.488 µM; in the assay with YK 4-279, over 10 µM. Further, the IC50 in the assay with XAV 939 is over 5 µM; with BMS-345541 it was 4 µM.
As for ALL-SIL (T-cell leukaemia, suspension), the AUC with Bexarotene came to 0.931; with AZD7762 it was 0.558; with Etoposide it was 0.354; with GSK-650394, 0.551; with NPK76-II-72-1 it was 0.427; with YK 4-279, 0.532. For the same cell line, the AUC with XAV 939 was found to be 0.979; in the assay with BMS-345541, 0.522. Besides, the IC50 was over 8 µM in the assay with Bexarotene; 176 nM with AZD7762; 420 nM with Etoposide; 1.35 µM in the assay with GSK-650394; 0.417 µM with NPK76-II-72-1; 0.752 µM with YK 4-279. The values for the IC50 with XAV 939 and in the assay with BMS-345541 were over 5 µM and 1.14 µM, respectively.
As for AM-38 (glioma, semi-adherent), the AUC with Bexarotene stood at 0.982; in the assay with AZD7762, 0.873; in the assay with Etoposide, 0.72; with GSK-650394 it was 0.917; with NPK76-II-72-1 it was 0.921; with YK 4-279 it was 0.973. Besides, the AUC came out at 0.982 with XAV 939 and 0.876 with BMS-345541. Besides, the IC50 with Bexarotene was over 8 µM; with AZD7762 it was 2000 nM; with Etoposide, 4260 nM; in the assay with GSK-650394 it was over 16 µM; with NPK76-II-72-1, over 10.2 µM; in the assay with YK 4-279 it was over 10 µM. For the same cell line, the values for the IC50 with XAV 939 and with BMS-345541 were over 5 µM and over 16 µM, respectively.
